# Data from patent publication US7531671B2, “Dihydroisoindolones as allosteric modulators of glucokinase” (Janssen Pharmaceutica N.V., priority 2005, dated 2009).
# Several values for one entry are separate records, joined by “and”; a condition that tells them apart may be missing. Equal values may be shown once. At least one read-out could not be matched to a standard name with certainty. For part of these data: At least one structure is not confirmed: it was looked up by name or label, or the drawing left a doubt.
# Biological target: T1, human pancreas Glucokinase (GK) (Homo sapiens, UniProt P35557)
# T1 construct: (His)6; made in house; host or cells: Escherichia coli
# T1 sequence (P35557 1-465): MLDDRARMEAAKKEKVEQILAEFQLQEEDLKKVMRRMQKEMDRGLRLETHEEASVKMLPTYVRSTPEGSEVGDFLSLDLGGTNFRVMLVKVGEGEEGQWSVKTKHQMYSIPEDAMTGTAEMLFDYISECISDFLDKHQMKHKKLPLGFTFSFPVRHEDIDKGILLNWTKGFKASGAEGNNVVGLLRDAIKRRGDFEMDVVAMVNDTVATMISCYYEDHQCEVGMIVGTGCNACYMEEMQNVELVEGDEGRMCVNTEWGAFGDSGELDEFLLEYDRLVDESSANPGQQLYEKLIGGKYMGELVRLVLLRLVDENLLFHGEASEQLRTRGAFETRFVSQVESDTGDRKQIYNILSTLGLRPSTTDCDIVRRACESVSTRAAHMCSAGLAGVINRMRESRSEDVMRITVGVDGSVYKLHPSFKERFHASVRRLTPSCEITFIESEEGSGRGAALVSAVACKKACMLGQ
# Experiment: Glucokinase enzyme assay, Pancreas GK data
# Assay type: biochemical
# Conditions: compound 50 μM, percentage increase in GK activity above vehicle control, 12 mM glucose
# Description: (§1) An enzymatic Glucokinase (GK) assay using purified recombinant human liver/pancreas enzyme was used to evaluate the effects of potential small molecule modulators.
# (§2) In this assay, GK catalyzes glucose phosphorylation in the presence of ATP. The product of this reaction, glucose-6-phosphate, was then oxidized by an excess of glucose-6-phosphate dehydrogenase to produce gluconate-6-phosphate with concomitant reduction of nicotinamide adenine dinucleotide (NAD). […] Human GK (Liver/Pancreas) was expressed in Escherichia coli as a (His) 6-tagged fusion protein and was purified by metal chelate affinity chromatography. The assay was performed in a final incubation volume of 80 μl in a 96-well clear low UV absorption plates. The incubation mixture consisted of 25 mM HEPES, 2 mM MgSO4, 1 mM dithiothreotol (DTT), 1 mg/ml bovine serum albumin (BSA), 1 mM ATP, 1 mM NAD, and 12 mM glucose, 10 units per ml glucose-6-phosphate dehydrogenase, and +/−300 ng per ml GK. For determination of the affinity (Km) and Vmax, different concentrations of glucose ranging from 0.5 mM to 40 mM were used in the assay; see Grimsby, J., Sarabu, R.; Grippo, J. F.; et. al. Science 2003, 301, 370-373. Production of reduced NAD (Nicotinamide Adenine Dinucleotide) was measured as changes in absorption at 340 nm in 96-well plate reader (Envision model # 2101 Multilabel Plate reader). % Activation @ 50 μM was calculated as the percentage increase in GK activity above the vehicle control with the effective concentration of the compound being 50 μM. EC50% (μM) was calculated as the effective concentration of the compound that produces 50% activation above the vehicle control, and EC100% (μM) was calculated as the effective concentration of the compound that produces 100% activation above the vehicle control.
row,SMILES,% Activation @ 50 μM
1,"COc1ccc(CN2C(=O)c3ccccc3C2SCC(=O)Nc2ccccn2)cc1OC (stereo not drawn) [Compound 42, 2-[2-(3,4-Dimethoxybenzyl)-3-oxo-2,3-dihydro-1H-isoindol-1-ylsulfanyl]-N-pyridin-2-yl-acetamide]",283% and 222%
2,"COc1ccc(CN2C(=O)c3c(F)ccc(F)c3C2SCC(=O)Nc2ccccn2)cc1OC (stereo not drawn) [Compound 50, 2-[2-(3,4-Dimethoxy-benzyl)-4,7-difluoro-3-oxo-2,3-dihydro-1H-isoindol-1-ylsulfanyl]-N-pyridin-2-yl-acetamide]",255% and 283%
3,"CCCCN1C(=O)c2ccccc2C1OCC(=O)Nc1nccs1 (stereo not drawn) [Compound 53, 2-(2-Butyl-3-oxo-2,3-dihydro-1H-isoindol-1-yloxy)-N-thiazol-2-yl-acetamide]",87%
4,"COc1ccc(CN2C(=O)c3cccc(F)c3C2SCC(=O)Nc2ccccn2)cc1OC (stereo not drawn) [Compound 52, 2-[2-(3,4-Dimethoxybenzyl)-7-fluoro-3-oxo-2,3-dihydro-1H-isoindol-1-ylsulfanyl]-N-pyridin-2-yl-acetamide]",329% and 294%

# Same assay, conditions: concentration producing 100% activation above vehicle control
row,SMILES,EC100% [µM]
1,"O=C(CSC1c2ccccc2C(=O)N1Cc1ccc(-n2cccn2)cc1)Nc1ccccn1 (stereo not drawn) [Compound 47, 2-[3-Oxo-2-(4-pyrazol-1-yl-benzyl)-2,3-dihydro-1H-isoindol-1-ylsulfanyl]-N-pyridin-2-yl-acetamide]",4.8
2,"CCCCN1C(=O)c2ccccc2C1OCC(=O)Nc1nccs1 (stereo not drawn) [Compound 53, 2-(2-Butyl-3-oxo-2,3-dihydro-1H-isoindol-1-yloxy)-N-thiazol-2-yl-acetamide]",>50

# Biological target: T2, human liver Glucokinase (GK) (Homo sapiens, UniProt P35557)
# T2 construct: (His)6; made in house; host or cells: Escherichia coli
# T2 sequence (P35557 1-466 isoform P35557-2): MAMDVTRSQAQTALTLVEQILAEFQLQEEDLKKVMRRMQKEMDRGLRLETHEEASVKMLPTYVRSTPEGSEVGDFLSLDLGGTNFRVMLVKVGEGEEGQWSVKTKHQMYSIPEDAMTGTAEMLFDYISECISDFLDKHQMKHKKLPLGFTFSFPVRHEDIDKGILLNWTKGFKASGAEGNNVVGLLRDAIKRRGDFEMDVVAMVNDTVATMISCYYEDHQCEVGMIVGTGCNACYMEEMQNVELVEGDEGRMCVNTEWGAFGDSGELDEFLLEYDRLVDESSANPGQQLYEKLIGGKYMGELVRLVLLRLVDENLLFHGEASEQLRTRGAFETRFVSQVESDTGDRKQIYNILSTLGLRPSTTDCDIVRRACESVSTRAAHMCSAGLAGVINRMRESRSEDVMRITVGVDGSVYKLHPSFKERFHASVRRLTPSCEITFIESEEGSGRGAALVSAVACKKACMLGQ
# Experiment: Glucokinase enzyme assay, Liver GK data
# Assay type: biochemical
# Conditions: compound 50 μM, percentage increase in GK activity above vehicle control, 12 mM glucose
# Description: as §1, §2
row,SMILES,% Activation @ 50 μM
1,"O=C(CSC1c2ccccc2C(=O)N1Cc1cccs1)Nc1nccs1 (stereo not drawn) [Compound 14, 2-(3-Oxo-2-thiophen-2-ylmethyl-2,3-dihydro-1H-isoindol-1-ylsulfanyl)-N-thiazol-2-yl-acetamide]",129% and 150%
2,"O=C(CSC1c2ccccc2C(=O)N1Cc1cccs1)Nc1cnccn1 (stereo not drawn) [Compound 31, 2-(3-Oxo-2-thiophen-2-ylmethyl-2,3-dihydro-1H-isoindol-1-ylsulfanyl)-N-pyrazin-2-yl-acetamide]",189%
3,"COc1ccc(CN2C(=O)c3ccccc3C2SCC(=O)Nc2nccs2)cc1 (stereo not drawn) [Compound 29, 2-[2-(4-Methoxybenzyl)-3-oxo-2,3-dihydro-1H-isoindol-1-ylsulfanyl]-N-thiazol-2-yl-acetamide]",147%
